Drawing on paper PMC9911399, “Two distinct binding modes provide the RNA-binding protein RbFox with extraordinary sequence specificity”, this text covers binding signal for 9 molecules.

T1: RBFOX1 RRM RbFoxmut (Fox-RRM*) (Homo sapiens, UniProt Q9NWB1 109-208, R118D;E147R;N151S;E152T)
T1 sequence: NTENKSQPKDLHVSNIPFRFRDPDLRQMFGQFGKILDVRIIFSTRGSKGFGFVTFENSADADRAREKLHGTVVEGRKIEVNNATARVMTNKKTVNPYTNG

B1: UUGAGUG (DNA:RNA)
RNA: GGGAGACCGGAAUUCAGAUUGUCCUUGAGUGUUAAAUCCCGUCGUAGCCACCA
DNA 1: CAATCTGAATTCCGGTCTCCC
DNA 2: TGGTGGCTACGACGGGATT
B2: GGCUCGA (DNA:RNA)
RNA: GGGAGACCGGAAUUCAGAUUGUCCGGCUCGAUUAAAUCCCGUCGUAGCCACCA
DNA 1: CAATCTGAATTCCGGTCTCCC
DNA 2: TGGTGGCTACGACGGGATT
B3: CAGCAUG (DNA:RNA)
RNA: B1 RNA with U25C, U26A, A28C, G29A
DNA 1: CAATCTGAATTCCGGTCTCCC
DNA 2: TGGTGGCTACGACGGGATT
B4: AUGCUAG (DNA:RNA)
RNA: B1 RNA with U25A, A28C, G29U, U30A
DNA 1: CAATCTGAATTCCGGTCTCCC
DNA 2: TGGTGGCTACGACGGGATT
B5: GAUUCAG (DNA:RNA)
RNA: B2 RNA with G26A, C27U, G30A, A31G
DNA 1: CAATCTGAATTCCGGTCTCCC
DNA 2: TGGTGGCTACGACGGGATT
B6: UACUAAC (DNA:RNA)
RNA: B2 RNA with G25U, G26A, C29A, G30A, A31C
DNA 1: CAATCTGAATTCCGGTCTCCC
DNA 2: TGGTGGCTACGACGGGATT
B7: CCUCAAG (DNA:RNA)
RNA: B1 RNA with U25C, U26C, G27U, A28C, G29A, U30A
DNA 1: CAATCTGAATTCCGGTCTCCC
DNA 2: TGGTGGCTACGACGGGATT
B8: GAGAAGU (DNA:RNA)
RNA: B2 RNA with G26A, C27G, U28A, C29A, A31U
DNA 1: CAATCTGAATTCCGGTCTCCC
DNA 2: TGGTGGCTACGACGGGATT
B9: UGGGCGC (DNA:RNA)
RNA: B2 RNA with G25U, C27G, U28G, A31C
DNA 1: CAATCTGAATTCCGGTCTCCC
DNA 2: TGGTGGCTACGACGGGATT

Substitutions are numbered along the chain they refer to; changes in the protein carry UniProt numbers. This is one part of the list.

The target of this test is T1, RBFOX1 RRM RbFoxmut (Fox-RRM*). Kind of test: EMSA; HiTS-Eq, 1 nM pool, 10 min; buffer printed only for the single-RNA assays: 10 mM Tris pH 7.5, 150 mM NaCl, 3.4 mM EDTA, 0.001% NP-40, 30 C. Particulars: tags: His6 N-terminal (pET28a); label: 5' 32P. The gist of the method:
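These values rest on relative association constants, computed from read-count changes of each RNA species versus the control reaction and normalised to the cognate motif. Reads came from free RNA recovered by 8% native PAGE after purified RbFox RRM (wild type or mutant) at increasing concentrations was equilibrated for 10 min in 50 µL with 1 nM of a 5′-radiolabelled pool with 7 randomized nucleotides and DNA-annealed flanks.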
B1: the binding signal was 0.277 KA relative to UGCAUGU.
The result for B2 reads 0.204 KA relative to UGCAUGU; that for B3, 0.965 KA relative to UGCAUGU.
The result for B4 reads 0.179 KA relative to UGCAUGU.
Then B5, with 0.155 KA relative to UGCAUGU.
Turning to B6, the binding signal is 0.0859 KA relative to UGCAUGU.
The result for B7 reads 0.111 KA relative to UGCAUGU; that for B8, 0.098 KA relative to UGCAUGU; that for B9, 0.135 KA relative to UGCAUGU.
